Some of the results follow.
Legend:
Assay in all cases: glycan array binding signal (z-score within array); higher = stronger binding
Details in all cases: glycan notation: IUPAC condensed, linker removed
[1] = target: Fuc(a1-2)Gal(b1-4)[Fuc(a1-3)]GlcNAc(b1-2)[Fuc(a1-2)Gal(b1-4)[Fuc(a1-3)]GlcNAc(b1-4)]Man(a1-3)[Fuc(a1-2)Gal(b1-4)[Fuc(a1-3)]GlcNAc(b1-2)Man(a1-6)]Man(b1-4)GlcNAc(b1-4)GlcNAc
Method in brief: (§1)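 The binding signal is a Z-score computed within each array and averaged over linkers. Arrays of the same protein sequence at different concentrations or buffers were also averaged together. Data originate from 3228 arrays in the Consortium for Functional Glycomics database, kept only where the protein sequence was available.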

[2] = target: Fuc(a1-2)Gal(b1-4)[Fuc(a1-3)]GlcNAc(b1-3)Gal(b1-4)[Fuc(a1-3)]GlcNAc
Method in brief: as §1

[3] = target: Fuc(a1-2)Gal(b1-4)[Fuc(a1-3)]GlcNAc(b1-3)Gal(b1-4)[Fuc(a1-3)]GlcNAc(b1-3)Gal(b1-4)[Fuc(a1-3)]GlcNAc
Method in brief: as §1

[4] = target: Fuc(a1-2)Gal(b1-4)[Fuc(a1-3)]GlcNAc(b1-3)GalNAc
Method in brief: as §1

Fuc(a1-2)Gal6S(b1-4)Glc = target: Fuc(a1-2)Gal6S(b1-4)Glc
Method in brief: as §1

[5] = target: Fuc(a1-2)Gal6S(b1-4)Glc6S
Method in brief: as §1

[6] = target: Fuc(a1-2)Gal6S(b1-4)GlcNAc
Method in brief: as §1

Fuc(a1-2)[Gal(a1-3)]Gal = target: Fuc(a1-2)[Gal(a1-3)]Gal
Method in brief: as §1

[7] = target: Fuc(a1-2)[Gal(a1-3)]Gal(b1-3)GlcNAc
Method in brief: as §1

[8] = target: Fuc(a1-2)[Gal(a1-3)]Gal(b1-3)GlcNAc(b1-2)Man(a1-3)[Fuc(a1-2)[Gal(a1-3)]Gal(b1-3)GlcNAc(b1-2)Man(a1-6)]Man(b1-4)GlcNAc(b1-4)GlcNAc
Method in brief: as §1

[9] = target: Fuc(a1-2)[Gal(a1-3)]Gal(b1-3)GlcNAc(b1-3)GalNAc
Method in brief: as §1

[10] = target: Fuc(a1-2)[Gal(a1-3)]Gal(b1-4)Glc
Method in brief: as §1

[11] = target: Fuc(a1-2)[Gal(a1-3)]Gal(b1-4)GlcNAc
Method in brief: as §1

[12] = target: Fuc(a1-2)[Gal(a1-3)]Gal(b1-4)GlcNAc(b1-2)Man(a1-3)[Fuc(a1-2)[Gal(a1-3)]Gal(b1-4)GlcNAc(b1-2)Man(a1-6)]Man(b1-4)GlcNAc(b1-4)GlcNAc
Method in brief: as §1

[13] = target: Fuc(a1-2)[Gal(a1-3)]Gal(b1-4)GlcNAc(b1-2)Man(a1-3)[Fuc(a1-2)[Gal(a1-3)]Gal(b1-4)GlcNAc(b1-2)Man(a1-6)]Man(b1-4)GlcNAc(b1-4)[Fuc(a1-6)]GlcNAc
Method in brief: as §1

[14] = target: Fuc(a1-2)[Gal(a1-3)]Gal(b1-4)GlcNAc(b1-3)GalNAc
Method in brief: as §1

[15] = target: Fuc(a1-2)[Gal(a1-3)]Gal(b1-4)[Fuc(a1-3)]Glc
Method in brief: as §1

[16] = target: Fuc(a1-2)[Gal(a1-3)]Gal(b1-4)[Fuc(a1-3)]GlcNAc
Method in brief: as §1

[17] = target: Fuc(a1-2)[Gal(a1-3)]Gal(b1-4)[Fuc(a1-3)]GlcNAc(b1-3)GalNAc
Method in brief: as §1

[18] = target: Fuc(a1-2)[Gal(a1-4)]Gal(b1-4)GlcNAc
Method in brief: as §1

[19] = target: Fuc(a1-2)[GalNAc(a1-3)]Gal
Method in brief: as §1

[20] = target: Fuc(a1-2)[GalNAc(a1-3)]Gal(b1-3)GalNAc(a1-3)[Fuc(a1-2)]Gal(b1-4)GlcNAc
Method in brief: as §1

[21] = target: Fuc(a1-2)[GalNAc(a1-3)]Gal(b1-3)GlcNAc
Method in brief: as §1

[22] = target: Fuc(a1-2)[GalNAc(a1-3)]Gal(b1-3)GlcNAc(b1-2)Man(a1-3)[Fuc(a1-2)[GalNAc(a1-3)]Gal(b1-3)GlcNAc(b1-2)Man(a1-6)]Man(b1-4)GlcNAc(b1-4)GlcNAc
Method in brief: as §1

[23] = target: Fuc(a1-2)[GalNAc(a1-3)]Gal(b1-3)GlcNAc(b1-3)GalNAc
Method in brief: as §1

[24] = target: Fuc(a1-2)[GalNAc(a1-3)]Gal(b1-4)Glc
Method in brief: as §1

[25] = target: Fuc(a1-2)[GalNAc(a1-3)]Gal(b1-4)GlcNAc
Method in brief: as §1

[26] = target: Fuc(a1-2)[GalNAc(a1-3)]Gal(b1-4)GlcNAc(b1-2)Man(a1-3)[Fuc(a1-2)[GalNAc(a1-3)]Gal(b1-4)GlcNAc(b1-2)Man(a1-6)]Man(b1-4)GlcNAc(b1-4)GlcNAc
Method in brief: as §1

[27] = target: Fuc(a1-2)[GalNAc(a1-3)]Gal(b1-4)GlcNAc(b1-3)Gal(b1-4)GlcNAc
Method in brief: as §1

[28] = target: Fuc(a1-2)[GalNAc(a1-3)]Gal(b1-4)GlcNAc(b1-3)Gal(b1-4)GlcNAc(b1-3)Gal(b1-4)GlcNAc
Method in brief: as §1

B1: Gal 7 (Canis lupus) (protein)
chain: MAGSSNVPHKTSLPEGIRVGTVMRIRGVVPNKAGRFYVNLLCGEAPGSEAALHFNPRLDESTVVFNTLEQGAWGREERGTGIPFQRGQPFDVLLIATDEGFKAVVGDSEYHHFRYRIPPARVRLLEVGGDLQLESVSVF
B1 was tested, and the “glycan array binding signal (z-score)” value [1] was -0.168, the “glycan array binding signal (z-score)” value [2] was -0.188 and the “glycan array binding signal (z-score)” value [3] was 5.78. For the same binder, the “glycan array binding signal (z-score)” value [4] was -0.159, the “glycan array binding signal (z-score)” value (Fuc(a1-2)Gal6S(b1-4)Glc) was -0.2 and the “glycan array binding signal (z-score)” value [5] was -0.192. The “glycan array binding signal (z-score)” value [6] was -0.199, the “glycan array binding signal (z-score)” value (Fuc(a1-2)[Gal(a1-3)]Gal) was -0.214 and the “glycan array binding signal (z-score)” value [7] was 0.004. The “glycan array binding signal (z-score)” value [8] was 0.444, the “glycan array binding signal (z-score)” value [9] was -0.174 and the “glycan array binding signal (z-score)” value [10] was -0.139. For the same binder, the “glycan array binding signal (z-score)” value [11] was -0.055, the “glycan array binding signal (z-score)” value [12] was 1.26 and the “glycan array binding signal (z-score)” value [13] was 1.25. The “glycan array binding signal (z-score)” value [14] was -0.183, the “glycan array binding signal (z-score)” value [15] was -0.171 and the “glycan array binding signal (z-score)” value [16] was -0.203. The “glycan array binding signal (z-score)” value [17] was -0.16, the “glycan array binding signal (z-score)” value [18] was -0.216 and the “glycan array binding signal (z-score)” value [19] was -0.216. For the same binder, the “glycan array binding signal (z-score)” value [20] was -0.149, the “glycan array binding signal (z-score)” value [21] was 0.526 and the “glycan array binding signal (z-score)” value [22] was 0.631. The “glycan array binding signal (z-score)” value [23] was -0.18, the “glycan array binding signal (z-score)” value [24] was -0.099 and the “glycan array binding signal (z-score)” value [25] was 0.378. For the same binder, the “glycan array binding signal (z-score)” value [26] was 2.5, the “glycan array binding signal (z-score)” value [27] was 3.55 and the “glycan array binding signal (z-score)” value [28] was 2.59.

Source: the supplement of paper PMC8728848
